{"source": "the supplement of paper PMC8728848", "binders": {"B1": {"name": "Cohesin-hMARCO (Homo sapiens) (protein)", "chain": "LDDLDAVRIKVDTVNAKPGDTVRIPVRFSGIPSKGIANCDFVYSYDPNVLEIIEIEPGDIIVDPNPDKSFDTAVYPDRKIIVFLFAEDSGTGAYAITKDGVFATIVAKVKEGAPNGLSVIKFVEVGGFANNDLVEQKTQFFDGGANVGDTTEPATPTTPVTTPTTTDDLDAASVRIVGSSNRGRAEVYYSGTWGTICDDEWQNSDAIVFCRMLGYSKGRALYKVGAGTGQIWLDNVQCRGTESTLWSCTKNSWGHHDCSHEEDAGVECSVHHHHHH"}}, "assay_in_all_cases": "glycan array binding signal (z-score within array); higher = stronger binding", "details_in_all_cases": "glycan notation: IUPAC condensed, linker removed", "key": {"[1]": {"molecular_target": "Gal(b1-4)GlcNAc(b1-2)Man(a1-6)[Man(a1-3)]Man(b1-4)GlcNAc(b1-4)GlcNAc", "summary_of_the_method": "(§1)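 Glycan array binding is given as a within-array Z-score, which can be read as non-binding when negative. The arrays, 3228 of them, came from the Consortium for Functional Glycomics database and were retained only where the protein sequence was available. Z-scores were averaged across arrays of the same protein sequence at different concentrations or buffers and across linkers.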"}, "[2]": {"molecular_target": "Gal(b1-4)GlcNAc(b1-2)[Gal(b1-4)GlcNAc(b1-4)]Man(a1-3)[Gal(b1-4)GlcNAc(b1-2)Man(a1-6)]Man(b1-4)GlcNAc(b1-4)GlcNAc", "summary_of_the_method": "as §1"}, "[3]": {"molecular_target": "Gal(b1-4)GlcNAc(b1-2)[Gal(b1-4)GlcNAc(b1-4)]Man(a1-3)[Gal(b1-4)GlcNAc(b1-2)[Gal(b1-4)GlcNAc(b1-6)]Man(a1-6)]Man(b1-4)GlcNAc(b1-4)GlcNAc", "summary_of_the_method": "as §1"}, "[4]": {"molecular_target": "Gal(b1-4)GlcNAc(b1-2)[Gal(b1-4)GlcNAc(b1-4)]Man(a1-3)[GlcNAc(b1-4)][Gal(b1-4)GlcNAc(b1-2)Man(a1-6)]Man(b1-4)GlcNAc(b1-4)GlcNAc", "summary_of_the_method": "as §1"}, "[5]": {"molecular_target": "Gal(b1-4)GlcNAc(b1-2)[Gal(b1-4)GlcNAc(b1-4)]Man(a1-3)[GlcNAc(b1-4)][Gal(b1-4)GlcNAc(b1-2)[Gal(b1-4)GlcNAc(b1-6)]Man(a1-6)]Man(b1-4)GlcNAc(b1-4)GlcNAc", "summary_of_the_method": "as §1"}, "[6]": {"molecular_target": "Gal(b1-4)GlcNAc(b1-2)[Gal(b1-4)GlcNAc(b1-6)]Man(a1-6)[Gal(b1-4)GlcNAc(b1-2)Man(a1-3)]Man(b1-4)GlcNAc(b1-4)GlcNAc", "summary_of_the_method": "as §1"}, "[7]": {"molecular_target": "Gal(b1-4)GlcNAc(b1-2)[Gal(b1-4)GlcNAc(b1-6)]Man(a1-6)[Gal(b1-4)GlcNAc(b1-2)Man(a1-3)]Man(b1-4)GlcNAc(b1-4)[Fuc(a1-6)]GlcNAc", "summary_of_the_method": "as §1"}, "[8]": {"molecular_target": "Gal(b1-4)GlcNAc(b1-2)[Gal(b1-4)GlcNAc(b1-6)]Man(a1-6)[GlcNAc(b1-4)][Gal(b1-4)GlcNAc(b1-2)Man(a1-3)]Man(b1-4)GlcNAc(b1-4)GlcNAc", "summary_of_the_method": "as §1"}, "[9]": {"molecular_target": "Gal(b1-4)GlcNAc(b1-2)[Gal(b1-4)GlcNAc(b1-6)]Man(a1-6)[GlcNAc(b1-4)][Gal(b1-4)GlcNAc(b1-2)[Gal(b1-4)GlcNAc(b1-4)]Man(a1-3)]Man(b1-4)GlcNAc(b1-4)[Fuc(a1-6)]GlcNAc", "summary_of_the_method": "as §1"}, "[10]": {"molecular_target": "Gal(b1-4)GlcNAc(b1-3)Gal(b1-3)GalNAc", "summary_of_the_method": "as §1"}, "[11]": {"molecular_target": "Gal(b1-4)GlcNAc(b1-3)Gal(b1-3)GlcNAc", "summary_of_the_method": "as §1"}, "[12]": {"molecular_target": "Gal(b1-4)GlcNAc(b1-3)Gal(b1-4)Glc", "summary_of_the_method": "as §1"}, "[13]": {"molecular_target": "Gal(b1-4)GlcNAc(b1-3)Gal(b1-4)GlcNAc", "summary_of_the_method": "as §1"}, "[14]": {"molecular_target": "Gal(b1-4)GlcNAc(b1-3)Gal(b1-4)GlcNAc(b1-2)Man(a1-3)[Gal(b1-4)GlcNAc(b1-3)Gal(b1-4)GlcNAc(b1-2)Man(a1-6)]Man(b1-4)GlcNAc(b1-4)GlcNAc", "summary_of_the_method": "as §1"}, "[15]": {"molecular_target": "Gal(b1-4)GlcNAc(b1-3)Gal(b1-4)GlcNAc(b1-2)Man(a1-3)[Gal(b1-4)GlcNAc(b1-3)Gal(b1-4)GlcNAc(b1-2)Man(a1-6)]Man(b1-4)GlcNAc(b1-4)[Fuc(a1-6)]GlcNAc", "summary_of_the_method": "as §1"}, "[16]": {"molecular_target": "Gal(b1-4)GlcNAc(b1-3)Gal(b1-4)GlcNAc(b1-2)[Gal(b1-4)GlcNAc(b1-3)Gal(b1-4)GlcNAc(b1-6)]Man(a1-6)[Gal(b1-4)GlcNAc(b1-3)Gal(b1-4)GlcNAc(b1-2)Man(a1-3)]Man(b1-4)GlcNAc(b1-4)GlcNAc", "summary_of_the_method": "as §1"}, "[17]": {"molecular_target": "Gal(b1-4)GlcNAc(b1-3)Gal(b1-4)GlcNAc(b1-2)[Gal(b1-4)GlcNAc(b1-3)Gal(b1-4)GlcNAc(b1-6)]Man(a1-6)[Gal(b1-4)GlcNAc(b1-3)Gal(b1-4)GlcNAc(b1-2)Man(a1-3)]Man(b1-4)GlcNAc(b1-4)[Fuc(a1-6)]GlcNAc", "summary_of_the_method": "as §1"}, "[18]": {"molecular_target": "Gal(b1-4)GlcNAc(b1-3)Gal(b1-4)GlcNAc(b1-3)Gal(b1-4)GlcNAc", "summary_of_the_method": "as §1"}, "[19]": {"molecular_target": "Gal(b1-4)GlcNAc(b1-3)Gal(b1-4)GlcNAc(b1-3)Gal(b1-4)GlcNAc(b1-2)Man(a1-3)[Gal(b1-4)GlcNAc(b1-3)Gal(b1-4)GlcNAc(b1-3)Gal(b1-4)GlcNAc(b1-2)Man(a1-6)]Man(b1-4)GlcNAc(b1-4)GlcNAc", "summary_of_the_method": "as §1"}, "[20]": {"molecular_target": "Gal(b1-4)GlcNAc(b1-3)Gal(b1-4)GlcNAc(b1-3)Gal(b1-4)GlcNAc(b1-2)Man(a1-3)[Gal(b1-4)GlcNAc(b1-3)Gal(b1-4)GlcNAc(b1-3)Gal(b1-4)GlcNAc(b1-2)Man(a1-6)]Man(b1-4)GlcNAc(b1-4)[Fuc(a1-6)]GlcNAc", "summary_of_the_method": "as §1"}, "[21]": {"molecular_target": "Gal(b1-4)GlcNAc(b1-3)Gal(b1-4)GlcNAc(b1-3)Gal(b1-4)GlcNAc(b1-2)[Gal(b1-4)GlcNAc(b1-3)Gal(b1-4)GlcNAc(b1-3)Gal(b1-4)GlcNAc(b1-6)]Man(a1-6)[Gal(b1-4)GlcNAc(b1-3)Gal(b1-4)GlcNAc(b1-3)Gal(b1-4)GlcNAc(b1-2)Man(a1-3)]Man(b1-4)GlcNAc(b1-4)[Fuc(a1-6)]GlcNAc", "summary_of_the_method": "as §1"}, "[22]": {"molecular_target": "Gal(b1-4)GlcNAc(b1-3)Gal(b1-4)GlcNAc(b1-3)Gal(b1-4)GlcNAc(b1-3)Gal(b1-4)GlcNAc(b1-2)Man(a1-3)[Gal(b1-4)GlcNAc(b1-3)Gal(b1-4)GlcNAc(b1-3)Gal(b1-4)GlcNAc(b1-3)Gal(b1-4)GlcNAc(b1-2)Man(a1-6)]Man(b1-4)GlcNAc(b1-4)GlcNAc", "summary_of_the_method": "as §1"}}, "note": "The list shows a part of the results."}
{"binder": "B1", "values": [{"measurement": "glycan array binding signal (z-score)", "setting": "[1]", "value": -0.434}, {"measurement": "glycan array binding signal (z-score)", "setting": "[2]", "value": -0.58}, {"measurement": "glycan array binding signal (z-score)", "setting": "[3]", "value": -0.565}, {"measurement": "glycan array binding signal (z-score)", "setting": "[4]", "value": -0.409}, {"measurement": "glycan array binding signal (z-score)", "setting": "[5]", "value": -0.515}, {"measurement": "glycan array binding signal (z-score)", "setting": "[6]", "value": -0.167}, {"measurement": "glycan array binding signal (z-score)", "setting": "[7]", "value": -0.355}, {"measurement": "glycan array binding signal (z-score)", "setting": "[8]", "value": -0.395}, {"measurement": "glycan array binding signal (z-score)", "setting": "[9]", "value": -0.487}, {"measurement": "glycan array binding signal (z-score)", "setting": "[10]", "value": -0.248}, {"measurement": "glycan array binding signal (z-score)", "setting": "[11]", "value": -0.462}, {"measurement": "glycan array binding signal (z-score)", "setting": "[12]", "value": -0.283}, {"measurement": "glycan array binding signal (z-score)", "setting": "[13]", "value": 0.118}, {"measurement": "glycan array binding signal (z-score)", "setting": "[14]", "value": 1.43}, {"measurement": "glycan array binding signal (z-score)", "setting": "[15]", "value": 0.29}, {"measurement": "glycan array binding signal (z-score)", "setting": "[16]", "value": 1.01}, {"measurement": "glycan array binding signal (z-score)", "setting": "[17]", "value": -0.105}, {"measurement": "glycan array binding signal (z-score)", "setting": "[18]", "value": -0.337}, {"measurement": "glycan array binding signal (z-score)", "setting": "[19]", "value": 0.365}, {"measurement": "glycan array binding signal (z-score)", "setting": "[20]", "value": 0.198}, {"measurement": "glycan array binding signal (z-score)", "setting": "[21]", "value": 0.329}, {"measurement": "glycan array binding signal (z-score)", "setting": "[22]", "value": 0.272}]}
